These results are taken from ChEMBL document CHEMBL4888484, “Replenishing the malaria drug discovery pipeline: Screening and hit evaluation of the MMV Hit Generation Library 1 (HGL1) against asexual blood stage Plasmodium falciparum ,using a nano luciferase reporter read-out” (2022).

Out of some 150,000 compounds screened, about 540 (0.36%) showed an effect of 50% or more. Some of the results follow.

As a reminder, the % Inhibition is the change of the read-out against control, counted positive when it falls.

The test deals with Plasmodium falciparum. Put plainly: Primary screen in NF54 nanoGlo assay, in single point, at 2uM, 72h; a lower Z score goes with more inhibition. It is filed as functional, Erythrocyte. Conditions: timepoint 72 hour.
For `O=C(c1cccc(C2CC2)c1)N1CCN(c2cnccn2)CC1`, the “% Inhibition” value is -6% and the Z score was found to be 0.68.

On to `CS(=O)(=O)N1CCC(C(=O)N2CCOc3ccc(F)cc3C2)CC1`, for which the “% Inhibition” value is -10% and the Z score stood at 1.21.

As for `CC(C)C(=O)Nc1ccc(-c2cc(-c3ccc(NC(=O)C(C)C)cc3)nc(-c3ccncc3)n2)cc1`, the “% Inhibition” value was 38% and the Z score was -10.15.

Regarding `CC1Nc2ncnn2C(c2cccc(O)c2)C1C(N)=O` (stereo not given), the “% Inhibition” value is recorded as -18% and the Z score was found to be 2.13.

In the case of `C=CCN(Cc1csc(COc2cc(C)cc(C)c2C)n1)C(=O)c1ccco1`, the “% Inhibition” value is given as -8% and the Z score came to 1.48.

In the case of `CCN(CC)S(=O)(=O)c1cccc(C(=O)OCC(=O)Nc2ccc(C(=O)Nc3ccccc3OC)cc2)c1`, the “% Inhibition” value is listed as -8% and the Z score amounted to 1.1.

`O=C(Nc1ccc(F)cc1F)[C@@H](F)C(F)(F)F`: the “% Inhibition” value is reported as -10% and the Z score stood at 1.53.

For the compound `Cc1cc(C)n(Cc2c(C(=O)NCc3ccc(N(C)C)cc3)noc2C)n1`, the “% Inhibition” value is given as -13% and the Z score is on record as 1.35.

With `O=C1CCN(C(=O)CN2CCCC2=O)CCN(c2nc(C3CCCCC3)ns2)CCN1`, the “% Inhibition” value is on record as -2% and the Z score came to 0.24.

As to `O=C(C1CCOC1)N1CCC1c1ccc(Cl)cc1` (stereo not given), the “% Inhibition” value is 26% and the Z score is on record as -2.93.

As for `COc1ccccc1N1CCN(c2ccc(-c3nc(-c4ccccc4)no3)nn2)CC1`, the “% Inhibition” value is 0% and the Z score is recorded as -0.08.

Consider `CCCCn1nc(Cn2cncn2)nc1C[C@@H]1NC(=O)c2ccccc21`, for which the “% Inhibition” value is -8% and the Z score worked out at 1.2.

For `C[C@H](OC(=O)c1cccc(C(N)=O)c1)C1CC1`, the “% Inhibition” value is recorded as -9% and the Z score worked out at 1.47.

As to `CN1CC[C@H](c2nc3cc(F)ccc3[nH]2)C1`, the “% Inhibition” value was -1% and the Z score was 0.12.

Turning to `CCC(=O)N[C@@H]1c2ccccc2C2(CCN(C(=O)c3ccoc3)CC2)[C@H]1OCCOC`, the “% Inhibition” value was 8% and the Z score is -1.08.

In the case of `Cc1ccccc1[C@@]1(CC(=O)NCCc2cnn(C)c2)CCOC(C)(C)C1`, the “% Inhibition” value is -15% and the Z score was 1.54.

For `O=C1CN(C(=O)Nc2cnn(CCF)c2)[C@H](c2ccccc2)CN1`, the “% Inhibition” value is given as -3% and the Z score turned out to be 0.52.

As for `Cc1ccc(C2C(C)CCCN2CC(O)CN2C(=O)CCC2=O)cc1` (stereo not given), the “% Inhibition” value is -12% and the Z score stood at 1.03.

Regarding `O=C(c1cc2c(s1)CCCC2)N1CCC[C@H]1c1ccc2c(c1)OCCCO2`, the “% Inhibition” value was -10% and the Z score was 1.15.

As for `O=C(CCn1cncn1)N1CCN(C(=O)c2ccccc2)CC1`, the “% Inhibition” value amounted to 2% and the Z score is -0.27.

For the compound `O=C(CN1CCN(C(=O)Nc2ccc(Cl)cc2)CC1=O)N1CCN(c2ccccc2F)CC1`, the “% Inhibition” value is given as 0% and the Z score turned out to be 0.08.

As to `C[C@@H]1CN(C(=O)c2cc3c([nH]2)CCCC3)C[C@H](C)N1CCO`, the “% Inhibition” value came to 4% and the Z score is recorded as -0.44.

In the case of `CCc1cccc(C)c1NC(=O)Cn1nc(-c2ccco2)c2sc(N3CCOCC3)nc2c1=O`, the “% Inhibition” value is on record as 4% and the Z score was -0.65.

Consider `CCc1nn(C)c(Cl)c1CN1CCC[C@](CCCOC)(C(=O)O)C1`, for which the “% Inhibition” value is on record as -4% and the Z score was 0.64.

Take `O=C(CN(CC(F)F)CC1CCC=CO1)NC(c1ccccc1)C1CC1` (stereo not given): the “% Inhibition” value was -7% and the Z score was 0.89.

Consider `COCC(=O)N1CCN(c2nc(C3CC3)nc(C)c2Cc2c(F)cccc2Cl)CC1`, for which the “% Inhibition” value is on record as 5% and the Z score is given as -0.93.

For `Cc1nc(C(=O)N2CC[S+]([O-])CC(C)C2)c(-c2ccccc2)s1` (stereo not given), the “% Inhibition” value is on record as -3% and the Z score was 0.4.

Turning to `Cc1nc(C(=O)N(Cc2cncs2)C2CC2)cs1`, the “% Inhibition” value was -10% and the Z score turned out to be 1.86.

Turning to `Cc1noc(C)c1CN[C@H]1CCc2nnc(-c3ccc(F)cc3)n2C1`, the “% Inhibition” value was -7% and the Z score is recorded as 1.36.

`CCc1nc(CN(CCO)Cc2ccc(F)cc2)n[nH]1`: the “% Inhibition” value is given as -6% and the Z score came to 0.93.

For `COc1ccc(-c2ccc(N3CCCN(C(=O)CN(Cc4ccco4)C(=O)c4ccc(Cl)cc4)CC3)nn2)cc1OC`, the “% Inhibition” value is -19% and the Z score is given as 2.47.

With `Cc1cc(C)cc(-c2cc3nc(C)cc(N4CCC(C(=O)NCc5cccc(F)c5)CC4)n3n2)c1`, the “% Inhibition” value stood at 75% and the Z score is given as -14.36.

Turning to `CC(C)NC(=O)[C@@H]1C[C@H](N)CN1C(=O)CCCc1c[nH]c2ccccc12`, the “% Inhibition” value is given as -2% and the Z score is recorded as 0.24.

In the case of `CCCc1nnc(-c2cccnc2N2CCN(C(=O)Nc3ccccc3CC)CC2)o1`, the “% Inhibition” value is recorded as -4% and the Z score stood at 0.71.

Turning to `O=C1CCC2CN(Cc3cnc4ccccc4n3)CCC2N1C1CC1` (stereo not given), the “% Inhibition” value was -8% and the Z score came to 1.3.

As to `CC(C)c1ccc(NC(=O)Cn2cnc3c(-c4ccc(F)cc4)nsc3c2=O)cc1`, the “% Inhibition” value was -1% and the Z score is 0.2.

Take `COc1cc(CCNC(=O)N2CCO[C@H](c3cccc(Cl)c3)[C@H]2C)ccn1`: the “% Inhibition” value was -12% and the Z score came to 1.39.

For the compound `CC[C@H](C)NC(=O)Nc1cccc(-c2noc(-c3sc(C)nc3C)n2)c1`, the “% Inhibition” value is reported as -12% and the Z score came out at 1.23.

As for `COc1ccccc1-c1nc(Cn2nnc(-c3nc(-c4ccccn4)no3)c2C)c(C)o1`, the “% Inhibition” value came out at 2% and the Z score was -0.31.

On to `CCOc1ccc(N(CC(=O)NCCN2CCOCC2)S(C)(=O)=O)cc1`, for which the “% Inhibition” value is on record as -9% and the Z score is 1.38.
